Data as given in publication PMC9911399, “Two distinct binding modes provide the RNA-binding protein RbFox with extraordinary sequence specificity”.
Positions count from the first letter of the chain named. This is one part of the list.

T1: RBFOX1 RRM RbFoxmut (Fox-RRM*) (Homo sapiens, UniProt Q9NWB1 109-208, R118D;E147R;N151S;E152T)
T1 sequence: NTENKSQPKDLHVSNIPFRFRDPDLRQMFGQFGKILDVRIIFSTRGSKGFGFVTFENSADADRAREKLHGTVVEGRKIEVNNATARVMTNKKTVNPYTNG

B1: CAUCCAA (DNA:RNA)
RNA: GGGAGACCGGAAUUCAGAUUGUCCCAUCCAAUUAAAUCCCGUCGUAGCCACCA
DNA 1: CAATCTGAATTCCGGTCTCCC
DNA 2: TGGTGGCTACGACGGGATT
B2: AUAGGAU (DNA:RNA)
RNA: B1 RNA with C25A, A26U, U27A, C28G, C29G, A31U
DNA 1: CAATCTGAATTCCGGTCTCCC
DNA 2: TGGTGGCTACGACGGGATT
B3: CGGCGCA (DNA:RNA)
RNA: B1 RNA with A26G, U27G, C29G, A30C
DNA 1: CAATCTGAATTCCGGTCTCCC
DNA 2: TGGTGGCTACGACGGGATT
B4: CGUUAGG (DNA:RNA)
RNA: B1 RNA with A26G, C28U, C29A, A30G, A31G
DNA 1: CAATCTGAATTCCGGTCTCCC
DNA 2: TGGTGGCTACGACGGGATT
B5: GUCAGCA (DNA:RNA)
RNA: B1 RNA with C25G, A26U, U27C, C28A, C29G, A30C
DNA 1: CAATCTGAATTCCGGTCTCCC
DNA 2: TGGTGGCTACGACGGGATT
B6: UGGUUCC (DNA:RNA)
RNA: GGGAGACCGGAAUUCAGAUUGUCCUGGUUCCUUAAAUCCCGUCGUAGCCACCA
DNA 1: CAATCTGAATTCCGGTCTCCC
DNA 2: TGGTGGCTACGACGGGATT
B7: GGGGGUG (DNA:RNA)
RNA: B6 RNA with U25G, U28G, U29G, C30U, C31G
DNA 1: CAATCTGAATTCCGGTCTCCC
DNA 2: TGGTGGCTACGACGGGATT
B8: AGAGAAG (DNA:RNA)
RNA: B1 RNA with C25A, A26G, U27A, C28G, C29A, A31G
DNA 1: CAATCTGAATTCCGGTCTCCC
DNA 2: TGGTGGCTACGACGGGATT
B9: UUAUUUG (DNA:RNA)
RNA: B6 RNA with G26U, G27A, C30U, C31G
DNA 1: CAATCTGAATTCCGGTCTCCC
DNA 2: TGGTGGCTACGACGGGATT
B10: GCGGCAU (DNA:RNA)
RNA: B1 RNA with C25G, A26C, U27G, C28G, A31U
DNA 1: CAATCTGAATTCCGGTCTCCC
DNA 2: TGGTGGCTACGACGGGATT
B11: GAUUCGC (DNA:RNA)
RNA: B1 RNA with C25G, C28U, A30G, A31C
DNA 1: CAATCTGAATTCCGGTCTCCC
DNA 2: TGGTGGCTACGACGGGATT
B12: AUCCGUU (DNA:RNA)
RNA: B1 RNA with C25A, A26U, U27C, C29G, A30U, A31U
DNA 1: CAATCTGAATTCCGGTCTCCC
DNA 2: TGGTGGCTACGACGGGATT
B13: UGCCCUC (DNA:RNA)
RNA: B6 RNA with G27C, U28C, U29C, C30U
DNA 1: CAATCTGAATTCCGGTCTCCC
DNA 2: TGGTGGCTACGACGGGATT
B14: CCAGCCG (DNA:RNA)
RNA: B1 RNA with A26C, U27A, C28G, A30C, A31G
DNA 1: CAATCTGAATTCCGGTCTCCC
DNA 2: TGGTGGCTACGACGGGATT
B15: CCGACGA (DNA:RNA)
RNA: B1 RNA with A26C, U27G, C28A, A30G
DNA 1: CAATCTGAATTCCGGTCTCCC
DNA 2: TGGTGGCTACGACGGGATT
B16: AGGCGCA (DNA:RNA)
RNA: B6 RNA with U25A, U28C, U29G, C31A
DNA 1: CAATCTGAATTCCGGTCTCCC
DNA 2: TGGTGGCTACGACGGGATT
B17: UUCAGGU (DNA:RNA)
RNA: B6 RNA with G26U, G27C, U28A, U29G, C30G, C31U
DNA 1: CAATCTGAATTCCGGTCTCCC
DNA 2: TGGTGGCTACGACGGGATT
B18: CUUCCAA (DNA:RNA)
RNA: B1 RNA with A26U
DNA 1: CAATCTGAATTCCGGTCTCCC
DNA 2: TGGTGGCTACGACGGGATT
B19: CAAGACA (DNA:RNA)
RNA: B1 RNA with U27A, C28G, C29A, A30C
DNA 1: CAATCTGAATTCCGGTCTCCC
DNA 2: TGGTGGCTACGACGGGATT
B20: CUGCCGU (DNA:RNA)
RNA: B1 RNA with A26U, U27G, A30G, A31U
DNA 1: CAATCTGAATTCCGGTCTCCC
DNA 2: TGGTGGCTACGACGGGATT
B21: AAGUCCG (DNA:RNA)
RNA: B6 RNA with U25A, G26A, U29C, C31G
DNA 1: CAATCTGAATTCCGGTCTCCC
DNA 2: TGGTGGCTACGACGGGATT
B22: UCGUACC (DNA:RNA)
RNA: B6 RNA with G26C, U29A
DNA 1: CAATCTGAATTCCGGTCTCCC
DNA 2: TGGTGGCTACGACGGGATT
B23: UCCUUAA (DNA:RNA)
RNA: B6 RNA with G26C, G27C, C30A, C31A
DNA 1: CAATCTGAATTCCGGTCTCCC
DNA 2: TGGTGGCTACGACGGGATT
B24: GAGGACG (DNA:RNA)
RNA: B6 RNA with U25G, G26A, U28G, U29A, C31G
DNA 1: CAATCTGAATTCCGGTCTCCC
DNA 2: TGGTGGCTACGACGGGATT
B25: CAGGGAG (DNA:RNA)
RNA: B1 RNA with U27G, C28G, C29G, A31G
DNA 1: CAATCTGAATTCCGGTCTCCC
DNA 2: TGGTGGCTACGACGGGATT
B26: GCGUAAG (DNA:RNA)
RNA: B6 RNA with U25G, G26C, U29A, C30A, C31G
DNA 1: CAATCTGAATTCCGGTCTCCC
DNA 2: TGGTGGCTACGACGGGATT
B27: AUAUGCG (DNA:RNA)
RNA: B6 RNA with U25A, G26U, G27A, U29G, C31G
DNA 1: CAATCTGAATTCCGGTCTCCC
DNA 2: TGGTGGCTACGACGGGATT
B28: GCUAAUU (DNA:RNA)
RNA: B1 RNA with C25G, A26C, C28A, C29A, A30U, A31U
DNA 1: CAATCTGAATTCCGGTCTCCC
DNA 2: TGGTGGCTACGACGGGATT
B29: UUGAUUA (DNA:RNA)
RNA: B6 RNA with G26U, U28A, C30U, C31A
DNA 1: CAATCTGAATTCCGGTCTCCC
DNA 2: TGGTGGCTACGACGGGATT
B30: ACUAUGU (DNA:RNA)
RNA: B1 RNA with C25A, A26C, C28A, C29U, A30G, A31U
DNA 1: CAATCTGAATTCCGGTCTCCC
DNA 2: TGGTGGCTACGACGGGATT
B31: UCCGGGA (DNA:RNA)
RNA: B1 RNA with C25U, A26C, U27C, C28G, C29G, A30G
DNA 1: CAATCTGAATTCCGGTCTCCC
DNA 2: TGGTGGCTACGACGGGATT

The binders below were run against T1, RBFOX1 RRM RbFoxmut (Fox-RRM*) (assay: EMSA; HiTS-Eq, 1 nM pool, 10 min; buffer printed only for the single-RNA assays: 10 mM Tris pH 7.5, 150 mM NaCl, 3.4 mM EDTA, 0.001% NP-40, 30 C). Details: tags: His6 N-terminal (pET28a); label: 5' 32P.
How it was run: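 Purified wild-type or mutant RbFox RRM at increasing concentrations was equilibrated with 1 nM of 5′-radiolabelled RNA carrying 7 randomized nucleotides for 10 min in 50 µL. Unbound RNA was separated by 8% native PAGE and sequenced. Relative association constants came from read-count changes of each RNA species compared with the control reaction, normalised to the cognate motif.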

Question: For B1, which binding signal is on record?
Answer: Its binding signal is 0.103 KA relative to UGCAUGU.

Question: For B2, which binding signal is on record?
Answer: The binding signal was 0.0745 KA relative to UGCAUGU.

Question: Which binding signal does the source give for B3 here?
Answer: Its binding signal is 0.126 KA relative to UGCAUGU.

Question: B4 was tested. Which binding signal did it give?
Answer: Its binding signal is 0.0993 KA relative to UGCAUGU.

Question: How did the binding signal turn out when B5 was run?
Answer: The binding signal was 0.122 KA relative to UGCAUGU.

Question: For B6, which binding signal is on record?
Answer: Its binding signal is 0.157 KA relative to UGCAUGU.

Question: How did the binding signal turn out when B7 was run?
Answer: The binding signal was 0.289 KA relative to UGCAUGU.

Question: B8 was tested. Which binding signal did it give?
Answer: The binding signal was 0.13 KA relative to UGCAUGU.

Question: Which binding signal does the source give for B9 here?
Answer: Its binding signal is 0.0915 KA relative to UGCAUGU.

Question: B10 was tested. Which binding signal did it give?
Answer: The binding signal was 0.124 KA relative to UGCAUGU.

Question: For B11, which binding signal is on record?
Answer: The binding signal was 0.132 KA relative to UGCAUGU.

Question: Which binding signal does the source give for B12 here?
Answer: Its binding signal is 0.119 KA relative to UGCAUGU.

Question: With B13 as the binder, how does the binding signal read?
Answer: The binding signal was 0.0571 KA relative to UGCAUGU.

Question: How did the binding signal turn out when B14 was run?
Answer: The binding signal was 0.0831 KA relative to UGCAUGU.

Question: How did the binding signal turn out when B15 was run?
Answer: Its binding signal is 0.0623 KA relative to UGCAUGU.

Question: B16 was tested. Which binding signal did it give?
Answer: Its binding signal is 0.124 KA relative to UGCAUGU.

Question: For B17, which binding signal is on record?
Answer: Its binding signal is 0.105 KA relative to UGCAUGU.

Question: With B18 as the binder, how does the binding signal read?
Answer: The binding signal was 0.0785 KA relative to UGCAUGU.

Question: B19 was tested. Which binding signal did it give?
Answer: Its binding signal is 0.0634 KA relative to UGCAUGU.

Question: Which binding signal does the source give for B20 here?
Answer: The binding signal was 0.0884 KA relative to UGCAUGU.

Question: For B21, which binding signal is on record?
Answer: Its binding signal is 0.0832 KA relative to UGCAUGU.

Question: For B22, which binding signal is on record?
Answer: Its binding signal is 0.0903 KA relative to UGCAUGU.

Question: With B23 as the binder, how does the binding signal read?
Answer: Its binding signal is 0.0966 KA relative to UGCAUGU.

Question: B24 was tested. Which binding signal did it give?
Answer: Its binding signal is 0.0679 KA relative to UGCAUGU.

Question: For B25, which binding signal is on record?
Answer: The binding signal was 0.128 KA relative to UGCAUGU.

Question: B26 was tested. Which binding signal did it give?
Answer: Its binding signal is 0.106 KA relative to UGCAUGU.

Question: Which binding signal does the source give for B27 here?
Answer: Its binding signal is 0.148 KA relative to UGCAUGU.

Question: For B28, which binding signal is on record?
Answer: Its binding signal is 0.0831 KA relative to UGCAUGU.

Question: B29 was tested. Which binding signal did it give?
Answer: The binding signal was 0.128 KA relative to UGCAUGU.

Question: How did the binding signal turn out when B30 was run?
Answer: Its binding signal is 0.152 KA relative to UGCAUGU.

Question: How did the binding signal turn out when B31 was run?
Answer: Its binding signal is 0.0524 KA relative to UGCAUGU.
